“And” between values parts separate entries of the source, which are not always exact repeats. Equal entries are not always repeated. Among all 16,000 compounds or so, about 40 (0.2%) were called active. Not shown: some 1% with an inconclusive outcome. The call rests on the fitted dose curve; in most records, active means well fitted activation curve with a large enough effect; inconclusive means small, poorly fitted or top-dose-only effect, or another doubt; inactive means no such curve, though single readings can be large or run the other way. The list shows a part of the results.
On the % scale 0 is the no-effect control and ±100 the full control effect.

The test addresses Rap guanine nucleotide exchange factor 4 (Homo sapiens) (UniProt Q8WZA2). The test is described as follows: Validation qHTS for agonist of cAMP-regulated guanine nucleotide exchange factor 4 (EPAC2).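 Further: exchange makes BODIPY-GDP fluorescence drop when released from Rap1B; series mostly up to about 150 µM.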 As to conditions: EPAC2 Rap1B BODIPY-GDP exchange, fluorescence; activation: active compounds read high. Summed up: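 Signal normalized against 6.5 mM cAMP as agonist control. Mix of EPAC2 (100 nM), RAP1B-BODIPY-GDP (250 nM) and GDP (50 uM) was read kinetically at 480/540 nm, every 5 min over 30 min, after 5 min room-temperature incubation with compound.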
Sequence of UniProt Q8WZA2 (Q8WZA2 whole entry, looked up): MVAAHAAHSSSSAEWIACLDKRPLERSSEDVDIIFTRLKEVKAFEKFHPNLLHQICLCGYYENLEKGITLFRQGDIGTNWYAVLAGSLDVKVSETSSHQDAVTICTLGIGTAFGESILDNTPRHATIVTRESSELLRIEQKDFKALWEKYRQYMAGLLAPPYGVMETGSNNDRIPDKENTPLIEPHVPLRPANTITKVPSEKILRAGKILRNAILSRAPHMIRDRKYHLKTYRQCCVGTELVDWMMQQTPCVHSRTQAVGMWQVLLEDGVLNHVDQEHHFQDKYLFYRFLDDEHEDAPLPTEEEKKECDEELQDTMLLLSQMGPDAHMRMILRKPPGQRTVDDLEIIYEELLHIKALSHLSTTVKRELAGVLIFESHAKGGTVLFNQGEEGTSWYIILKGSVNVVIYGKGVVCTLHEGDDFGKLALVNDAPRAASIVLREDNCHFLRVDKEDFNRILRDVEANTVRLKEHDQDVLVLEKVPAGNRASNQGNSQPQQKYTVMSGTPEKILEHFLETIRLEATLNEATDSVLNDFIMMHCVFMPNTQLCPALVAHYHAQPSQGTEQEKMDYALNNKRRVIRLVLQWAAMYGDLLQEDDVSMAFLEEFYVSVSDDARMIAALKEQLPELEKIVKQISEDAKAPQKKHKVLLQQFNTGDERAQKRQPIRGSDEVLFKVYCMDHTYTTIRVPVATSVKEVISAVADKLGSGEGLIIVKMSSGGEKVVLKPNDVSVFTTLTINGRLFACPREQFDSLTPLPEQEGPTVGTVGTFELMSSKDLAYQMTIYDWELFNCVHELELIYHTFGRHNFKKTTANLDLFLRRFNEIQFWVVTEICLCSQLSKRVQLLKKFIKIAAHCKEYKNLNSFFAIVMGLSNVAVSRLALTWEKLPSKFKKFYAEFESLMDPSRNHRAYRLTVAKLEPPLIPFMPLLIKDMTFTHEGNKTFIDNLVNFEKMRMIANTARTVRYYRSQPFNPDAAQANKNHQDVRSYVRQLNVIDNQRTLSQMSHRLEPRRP
Take `COC(=O)[C@@H](N)Cc1ccc(O)c(O)c1`: the activation was inactive: -4.17% and inactive: -23.9%.

With `COc1ccc(C(=O)N2CCC3(CC2)CN(c2ccc(-c4ccccc4)cc2)C3)cc1`, the activation is inactive: 3.83%.

In the case of `COc1ccc2c(c1)c(CC(=O)O)c(C)n2Cc1ccc(Cl)cc1`, the activation was inactive: -65.1%.

On to `C[C@]12CCC(=O)C=C1C=C[C@@H]1[C@@H]2CC[C@@]2(C)[C@H]1CC[C@@]21CCC(=O)O1`, for which the activation was inactive: -3.81%.

`O=S1(=O)CCO[C@H]2CCCC[C@@H]2N1Cc1cccc(F)c1`: the activation was inactive: -9.12%.

Take `COC(=O)N1CCC2(CC1)CN(c1ccncc1)C2`: the activation was inactive: -13%.

`O=C(O)c1ccc(NC(=O)[C@H](Cc2ccc(O)cc2)NC(=O)c2ccccc2)cc1`: the activation is inactive: -2.26%.

For `CC(=O)C1CCC2C3CC=C4CC(O)CC[C@@]4(C)C3CC[C@]12C` (some centres not stated), the activation was inactive: -8.44%.

On to `CN(C)Cc1ccccc1-c1nccc(N(C)Cc2ccco2)n1`, for which the activation was inactive: -2.04%.

Regarding `O=C(c1n[nH]c2c1CCCC2)N1CCOc2ccc(C(O)C(c3ccccc3)c3ccccc3)cc2C1` (configuration not stated), the activation is inactive: -11.1%.

As for `CCN(Cc1ccncc1)Cc1ccc2c(c1)CN(C(=O)c1cccc(-n3nc(C)cc3C)c1)CCO2`, the activation was inactive: -3.51%.

For `Nc1ccncc1N`, the activation was inactive: -12.2%.

In the case of `Oc1ccc([C@@H]2CNCCc3c2cc(O)c(O)c3Cl)cc1`, the activation was inactive: -19.8%.

Take `COC(=O)[C@H]1[C@H]2C[C@@H]3c4[nH]c5ccccc5c4CCN3C[C@H]2C[C@@H](OC(=O)c2cc(OC)c(OC)c(OC)c2)[C@@H]1OC`: the activation is inactive: -64.8% and inactive: -22.4%.

`COc1ccccc1CN1CCOc2ccc(C(C)(O)COc3ccccc3)cc2C1` (configuration not stated): the activation was inactive: -9.38%.

As for `Cc1noc(C)c1C(=O)N1CCC2(CCN(C(=O)Nc3ccccc3)CC2)CC1`, the activation is inactive: -15.8%.

`O=C(O)c1ccc(-n2nc(-c3ccccc3O)nc2-c2ccccc2O)cc1`: the activation is inactive: -42%.

Consider `N#Cc1cccc(-c2nc(Nc3ccncc3)c3ccccc3n2)c1`, for which the activation was inactive: 10.6%.

Regarding `COc1ccccc1-c1ccc(C(=O)NCCN2CCOCC2)c(N2CCN(c3ccccc3F)CC2)n1`, the activation is inactive: -19.2%.

Consider `COc1ccc(-c2coc3cc(O)ccc3c2=O)c(O)c1O`, for which the activation was inactive: -5.92%.

Consider `CCCCCC(=O)Cc1cc(O)cc(O)c1C(=O)Oc1cc(CC(=O)CCCCC)c(C(=O)O)c(OC)c1`, for which the activation is inactive: -12.7%.

As to `NC(=O)OCC(O)COc1ccc(Cl)cc1` (configuration not stated), the activation was inactive: 1.95%.

In the case of `Cn1c(=O)c(-c2cccs2)nc2cncnc21`, the activation is inactive: 23%.

Take `O=C(c1cnsn1)N1CCOc2ccc(C(O)C(c3ccccc3)c3ccccc3)cc2C1` (configuration not stated): the activation is inactive: 0.265%.

With `O=C(N[C@@H]1c2ccccc2C2(CCN(C(=O)c3cc4ccccc4oc3=O)CC2)[C@H]1O)c1cccnc1`, the activation was inactive: -11.6%.

For the compound `O=C(C[n+]1ccncc1Cl)c1ccc(F)cc1`, the activation was inactive: -13.4%.

Take `COc1cc(C)c(CN2CCOc3ccc(C(O)c4cccnc4)cc3C2)cc1C` (configuration not stated): the activation was inactive: -6.67%.

`COc1ccc(C2Oc3cc(OC)cc(OC)c3CC2O)cc1` (configuration not stated): the activation was inactive: -16.6%.

In the case of `CCCOC(=O)N[C@@H]1C(=O)N2C(C(=O)OCCC)=C(C)CS[C@H]12`, the activation is inactive: -8.74%.

Take `N[C@H](C(=O)O)[C@H]1C[C@H]1C(=O)O`: the activation was inactive: -8%.

As to `COCCOC(=O)C1=C(C)NC(C)=C(C(=O)OC(C)C)C1c1cccc([N+](=O)[O-])c1` (configuration not stated), the activation is inactive: 0.181% [middle of 4 runs].

For the compound `CN1C(C(=O)Nc2ccccn2)=C(O)c2ccccc2S1(=O)=O`, the activation is inactive: -4.2% [middle of 4 runs].

Consider `O=C(NCC1Cc2cc(F)cc(-c3cnccn3)c2O1)c1cccc(-c2ccccc2F)c1` (configuration not stated), for which the activation is inactive: 3.22%.

Regarding `C[C@]12CCC3c4ccc(OS(=O)(=O)O)cc4CCC3C1CCC2=O` (some centres not stated), the activation is inactive: 6.01%.

Regarding `Nc1ncnc2c1[nH]c(=O)n2C1CC(O)C(CO)O1` (configuration not stated), the activation is inactive: -10.3%.

Take `COC(=O)CCc1ccc(OCC(O)CNC(C)C)cc1` (configuration not stated): the activation is inactive: -3.23%.

As to `CN1CCN(c2nc(-c3ccc(N(C)C)cc3)nc3ccccc23)CC1`, the activation was inactive: -14%.

Consider `C(=C\c1cccs1)/c1ccccn1`, for which the activation was inactive: -14.5%.

`CC(C)c1nc2cccnc2n1C1CCN(C(=O)Cn2cccn2)CC1`: the activation is inactive: -4.44%.

In the case of `CC1CN(CC(=O)NCCc2ccncc2)Cc2ccccc2O1` (configuration not stated), the activation was inactive: 0.974%.

Regarding `CCNc1ncc2nc(-c3ccc(OC)cc3)c(=O)n(CCOC)c2n1`, the activation is inactive: -4.06%.

As to `O=C(c1ccccc1F)N(Cc1cc2cc3c(cc2nc1N1CCOCC1)CCC3)CC1CCCO1` (configuration not stated), the activation is inactive: 5.94%.

As to `CCCCC/C=C\CC1OC1CCCCCCCC(=O)O` (configuration not stated), the activation was inactive: -24.4%.

Consider `Nc1nc(N)c(-c2ccccc2)s1`, for which the activation was inactive: -11%.

`O=c1c(CN2CCOc3ccc(CN4CCC(Oc5cccnc5)CC4)cc3C2)coc2ccccc12`: the activation is inactive: -1.96%.

For the compound `COc1ccccc1C1CN(CC(=O)N[C@H]2CCCCNC2=O)Cc2ccccc2O1` (some centres not stated), the activation was inactive: -11.9%.

For the compound `COc1cc(/C=C(\C#N)C(=O)c2ccc(O)c(O)c2)cc(I)c1O`, the activation is inactive: 9.9%.

On to `CN1CCc2cc(NC(=O)Nc3cccnc3)ccc21`, for which the activation was inactive: -33%.

For `Cc1cccc2cc(CN(CC3CCCO3)C(=O)C3CC3)c(N(C)C)nc12` (configuration not stated), the activation is inactive: -3.93%.

Consider `COc1ncc2nc(-c3cn(C)c4ccccc34)c(=O)n(C[C@H]3CCCO3)c2n1`, for which the activation was inactive: -17.5%.

Turning to `Clc1ccccc1-c1cc(NCc2cccnc2)ncn1`, the activation is inactive: -23.1%.

`N#Cc1cccc(NC(=O)N2CCC3(CC2)CCN(C(=O)c2cnccn2)CC3)c1`: the activation is inactive: -0.31%.

With `COc1cccc(N(C)C(=S)Oc2ccc3c(c2)CCCC3)n1`, the activation is inactive: -34.2%.

On to `CCCCCCCCCC(=O)OCC(CO)OC(=O)CCCCCCCCC` (configuration not stated), for which the activation is inactive: -24.1%.

With `COc1cc(N)c(Cl)cc1C(=O)CCC1CCN(CCNS(C)(=O)=O)CC1`, the activation was inactive: 7.52% and inactive: -1.52%.

Consider `CCCNC(C)C(=O)Nc1c(C)csc1C(=O)OC` (configuration not stated), for which the activation is inactive: -12.6%.

On to `Cc1c(NC(C)C)c(=O)n(-c2ccccc2)n1C`, for which the activation is inactive: -23.5%.

(Values after PubChem BioAssay AID1645887 (National Center for Advancing Translational Sciences (NCATS), 2021).)
